Assay results published in the supplement of paper PMC11417369.
± gives the standard deviation of the averaged measurements. Some of the results follow.

system: PfAP2-LT AP2 domain (GST-tagged); experiment: gcPBM binding intensity (ln(normalized median fluorescence intensity)); higher = stronger DNA binding
Outline: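 Using an Agilent 4 × 180k array, primer-extended double-stranded 36-bp intergenic genomic probes and negative controls were exposed for 1 h to GST-fused P. falciparum DNA-binding domains expressed in E. coli. Binding was carried out in 1× PBS with 1% milk, 0.2 mg/ml BSA, 0.5% salmon testes DNA and 0.03% Triton X-100, and protein was detected with Alexa488 anti-GST antibody and a 488 nm scan. Binding intensity is the highest Masliner-normalised natural-log median intensity across replicate spots of either probe orientation.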

Sequence	gcPBM binding intensity (ln)
ATATATTTACTTAATACACACAAAAAAAAAAAAAAA [CACACA_site3657]	8.62 ± 0.43
TTTAATTTTTATATAACACACATATTGGAATTATGT [CACACA_site734]	8.94 ± 0.4
TTTTTTACATACAGAAATATATAATATAAAATAAAT [GTGCAC_negctrl_site278]	8.35 ± 0.33
TTAAATGTGAAGTGAATACACACCTAATAAATATAA [CACACA_site3194]	8.77 ± 0.35
TTATGTATTACCTGCCGTACTTCTAAAATAATTAAA [XGTACX_site1716]	8.52 ± 0.46
TGTTACAAAAAATAATGTACTTAATATATATATATA [XGTACX_site1016]	8.71 ± 0.33
TATCTTCATTTTTTTGGTACGCACGCAAATATGGCT [XGTACX_site3107]	8.99 ± 0.46
ACTGTCATTTATTGTAGTACGTCAATTTATTACATT [XGTACX_site2749]	9.21 ± 0.52
TATAATATGTTATATACACACATTATAAAATACACA [CACACA_site6742]	9.04 ± 0.32
TAATAATAAATAAAATGTACATATGAACAAATAAGT [XGTACX_site6710]	9.18 ± 0.43
AAAAAAAAAATTAATTGTACTAAAAAAATATTATAT [XGTACX_site8903]	8.37 ± 0.45
TGAATATTCATGTGTGTGCGCATGTTGTTAGACCAT [GTGCAC_site9869]	9.62 ± 0.46
TAAATACATTTATGTACACACACATAGATGTATATT [CACACA_site5618]	9.22 ± 0.36
TGTTTTCTTGATTATTGTACTTTAATTAGTAATATG [XGTACX_site8674]	8.77 ± 0.49
AAAAATATTATAAGCACACATATATATATATATATA [CACACA_site2458]	9.73 ± 0.49
TACTAACTTTTTAAAAGTACAGAACCATAACCATAA [XGTACX_site7182]	8.7 ± 0.29
GAATAATCTAGAAACACACAAACACGACAAAAGAAA [CACACA_site4135]	9.3 ± 0.35
ATATATATATATATATGGTAAAGTAAAAGGAAATAC [XGTACX_negctrl_site45]	9.25 ± 0.31
AGTCGAATGATGTACACACATACAAAACATTTATGC [CACACA_site4022]	9.42 ± 0.51

Sequence	gcPBM binding intensity (ln)
AGTTTATATTATTAAAGTACATATATATATTCTTAA [XGTACX_site3164]	8.49 ± 0.34
ATCATGTTATATATATGTACTAATAATATAATATAA [XGTACX_site1326]	8.62 ± 0.46
GTTTAAAATCTTTGCACACATATAAATAAATATATT [CACACA_site2555]	8.9 ± 0.41
AGTATATTAATATAATGTACAAACGTTTATTTTGTA [XGTACX_site5980]	8.74 ± 0.45
AAATATCTACATATTTGTACATATTTATACATATTT [XGTACX_site6300]	9.01 ± 0.42
GAAAAGTAGACAATATGTACATATAGTATTTATAAA [XGTACX_site878]	9.04 ± 0.56
TATATATTATAAAAGAGTACAGAAAGAAAAAAAAAT [XGTACX_site8305]	8.78 ± 0.5
ATATTCAATATATTATGTACACATATATGAGGATAT [XGTACX_site7019]	8.89 ± 0.3
AAACTTTTTTTAAAAACACACATATATATTTATATA [CACACA_site4092]	8.71 ± 0.33
ATAATGTTTCTTTCAACACACAAAAAATGAACCCAT [CACACA_site4947]	8.93 ± 0.37
TATTTATAAAAAAAATGTACATTTATGTATAAGCTA [XGTACX_site3266]	8.46 ± 0.4
TAAAAAAGTTATATTACACACTTTATTGGTTAACTT [CACACA_site653]	8.79 ± 0.47
ACATATAAATTATATACACACAATAATATATATATA [CACACA_site1384]	9.01 ± 0.39
TATATATAGAAACACACACACACATATATATATATA [CACACA_site4116]	10.045 ± 0.0071
AAAATTTAATATAATGCACACATAAAAAAAAAATCA [CACACA_site7882]	8.87 ± 0.42
AATATCAATATTATATGTACTTATAATTTCAATGTA [XGTACX_site2423]	8.62 ± 0.48
TAAATTTATTAATCAAGTACAAAATAAATTTTTATA [XGTACX_site2745]	8.25 ± 0.37
AAAAAAAAATATATATGTACATATGTATAATAAAAA [XGTACX_site2110]	8.86 ± 0.49
ATAAAAATAAATAAATTATATAAATGTAATATGAAA [GTGCAC_negctrl_site663]	8.59 ± 0.54

Sequence	gcPBM binding intensity (ln)
TTTAGAGAAGTCAAGTGTACATATAAAATAATTCAC [XGTACX_site4997]	8.65 ± 0.35
TATTTATTTATATATGCATGCTAATAATTATAACAT [TGCATGCA_site988]	8.81 ± 0.36
AATGAAGACTTTTTTACACACTTCATATATTATATA [CACACA_site2034]	8.9 ± 0.39
ATATTATATAACTTTTGTACGAACTATTTTATATAT [XGTACX_site6]	9.13 ± 0.5
ACCTATGTATATTATACACACTCCAAACTATTCTTT [CACACA_site6939]	9.07 ± 0.46
TAAAGTGTCAAATTCACACACATATATATATATATA [CACACA_site1380]	9.88 ± 0.12
TAAATTAGAATAAATACACACAAATTAGAATTCTAT [CACACA_site7781]	8.89 ± 0.42
TTTTTTTTTGTTAGTTGTACGTTAAATGAATTTACT [XGTACX_site7675]	8.67 ± 0.57
AATGATTTTAAAAAATGTACTTTATAAACAAAATTA [XGTACX_site3803]	8.32 ± 0.44
GTATAATTGGAAATTACACACCTTATAATGTAACAT [CACACA_site6091]	8.88 ± 0.36
CATGAATATTTTAATGTGCACATTTATCATTATATG	9.05 ± 0.47
ATATTTTCAGTTCTCCATTATGTTCCCATTATTTTT [CACACA_negctrl_site990]	9.09 ± 0.43
CCAAACTAAATGTACACACATACATAAATATAAATA [CACACA_site1141]	9.33 ± 0.48
ATGTAATAAATATACACACACAAATATATATATATA [CACACA_site2395]	9.79 ± 0.26
TTTTTTTTTTAGAGTACACACTTTTTTACATTTATG [CACACA_site5990]	8.77 ± 0.47
ATTACAAATATAATATGTACTTAAATATAATTAAAA [XGTACX_site7038]	8.42 ± 0.4
TCTTGATCTTATATATATCTACAATATTTTATACAT [TGCATGCA_negctrl_site569]	9.04 ± 0.42
ATTACTAAAACAAAATGTACATATGATTTAAGAAAA [XGTACX_site5992]	8.64 ± 0.36
CAAAAAAAATTATACACACACACACCCATATATATA [CACACA_site1044]	10.04 ± 0.099
